Measured values reported in article PMC4336329 (PLoS ONE, 2015).
The whole screen tested about 310,000 compounds, of which about 14,000 (4.5%) showed an effect of 50% or more. The effect is printed as a negative number. The list shows a part of the results.

target: human ether-à-go-go-related gene (hERG) potassium channel (human, UniProt Q12809); test: primary screen, population patch clamp on CHO cells stably expressing hERG
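Also: peak tail current of the secondary pulse compared with the same well before compound.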

Chain of human ether-à-go-go-related gene (hERG) potassium channel (Q12809 whole entry, looked up): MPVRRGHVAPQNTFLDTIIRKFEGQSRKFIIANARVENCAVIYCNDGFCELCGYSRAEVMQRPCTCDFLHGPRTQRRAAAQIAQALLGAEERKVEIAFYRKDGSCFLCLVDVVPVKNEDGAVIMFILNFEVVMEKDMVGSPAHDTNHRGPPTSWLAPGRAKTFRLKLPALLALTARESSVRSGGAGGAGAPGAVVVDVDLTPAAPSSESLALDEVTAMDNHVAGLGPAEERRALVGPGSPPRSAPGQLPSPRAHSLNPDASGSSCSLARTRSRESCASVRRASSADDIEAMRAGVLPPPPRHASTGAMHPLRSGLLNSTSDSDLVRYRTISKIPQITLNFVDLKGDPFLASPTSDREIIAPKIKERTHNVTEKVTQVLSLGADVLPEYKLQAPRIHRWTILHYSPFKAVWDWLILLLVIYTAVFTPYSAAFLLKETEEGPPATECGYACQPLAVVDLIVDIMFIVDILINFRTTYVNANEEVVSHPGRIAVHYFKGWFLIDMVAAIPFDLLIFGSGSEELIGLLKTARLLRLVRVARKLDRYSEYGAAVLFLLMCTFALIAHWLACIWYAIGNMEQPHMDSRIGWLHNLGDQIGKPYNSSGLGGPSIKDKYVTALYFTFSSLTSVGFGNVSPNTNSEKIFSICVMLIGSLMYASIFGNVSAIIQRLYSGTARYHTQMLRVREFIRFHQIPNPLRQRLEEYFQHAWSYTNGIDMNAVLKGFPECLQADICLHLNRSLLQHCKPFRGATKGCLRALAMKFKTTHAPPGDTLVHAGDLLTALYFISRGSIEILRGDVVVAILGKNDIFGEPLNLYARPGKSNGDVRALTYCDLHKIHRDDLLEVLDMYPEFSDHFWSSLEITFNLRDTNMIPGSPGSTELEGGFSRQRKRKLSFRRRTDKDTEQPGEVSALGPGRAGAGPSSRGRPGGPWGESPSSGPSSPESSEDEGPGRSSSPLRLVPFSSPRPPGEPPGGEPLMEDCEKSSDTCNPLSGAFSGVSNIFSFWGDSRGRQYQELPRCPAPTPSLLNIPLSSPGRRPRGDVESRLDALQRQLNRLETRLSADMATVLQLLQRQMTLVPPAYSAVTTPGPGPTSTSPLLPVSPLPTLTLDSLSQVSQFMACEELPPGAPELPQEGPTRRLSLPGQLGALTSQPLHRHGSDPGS

| SMILES | hERG current change (%, negative = inhibition) at 10uM [%] |
| --- | --- |
| COc1cccc(Nc2ccc(Nc3cccc(OC)c3)nn2)c1 | -0.276 |
| CCC(CC)NC(=O)CCc1nc2ccccc2c(=O)[nH]1 | 13.7 |
| COc1ccc(OCCn2cnc(Cl)c2Cl)cc1 | 8.05 |
| CC1(C)CC(=O)C2=C(C1)OC(c1cccs1)C(C#N)=C2N (stereo not drawn) | -25.7 |
| CCCc1cc(=O)oc2cc(C)cc(OCC(=O)N3CCC(C(=O)O)CC3)c12 | 8.99 |
| CC(=O)Nc1ccc(C(=O)Nc2ccc(S(=O)(=O)NCC3CCCO3)cc2)cc1 (stereo not drawn) | 10.7 |
| N#CCOC(=O)C1CSC2(c3ccc(Br)cc3)CCC(=O)N12 (stereo not drawn) | 8.43 |
| O=C(NCCC1CCCCN1S(=O)(=O)c1ccc(F)cc1)C(=O)NCc1cccnc1 (stereo not drawn) | -18.8 |
| CC(=O)c1ccc(N2CCN(C(=O)Nc3ccc(C(C)C)cc3)CC2)cc1 | -63.7 |
| CCOC(=O)C(=O)N(Nc1ccccc1C)c1ccccc1C | -14.3 |
| Cc1ccccc1N(CC(=O)N1CCc2ccccc2C1)S(C)(=O)=O | 6.34 |
| O=C(CCN1C(=O)/C(=C/c2ccc(F)cc2)SC1=S)NCCc1cnc[nH]1 | -33.2 |
| CCOc1ccc(CCNC(=O)COC(=O)c2cccc(N(C)C)c2)cc1OCC | -0.637 |
| O=C(CSc1cn(Cc2ccccc2)c2ccccc12)NCc1ccc(F)cc1 | 10.4 |
| O=c1c(-c2ccc(Br)cc2)coc2c(CN3CCOCC3)c(O)ccc12 | -20.7 |
| COc1cc2cc(CN(Cc3cccs3)C(=S)Nc3ccc(C)cc3)c(=O)[nH]c2cc1OC | 7.58 |
| COc1ccccc1C(NC(C)=O)c1c(O)ccc2ccc(O)cc12 (stereo not drawn) | -3.24 |
| CC(C)(C)[C@H]1CCC(=O)N([C@H](CN=[N+]=[N-])Cc2ccccc2)CC1 | -7.5 |
| Cc1nn2c(-c3ccc(S(=O)(=O)N4CCN(C)CC4)o3)nnc2c2ccccc12 | 13.6 |
| Cc1cccc(C)c1NC(=O)CNC(=O)Cc1ccccc1[N+](=O)[O-] | 17.9 |
| Cc1ccc2nc(NC(=O)c3ccc(N4C(=O)CCC4=O)cc3)sc2c1 | 15.8 |
| Cc1cc(C)cc(C(=O)/C=C2\NC(=O)CS2)c1 | 5.64 |
| CCCN1CCN(C(=S)Nc2ccc([N+](=O)[O-])cc2)CC1 | -52.1 |

| SMILES | hERG current change (%, negative = inhibition) at 10uM [%] |
| --- | --- |
| Cc1ccc(C)c(NS(=O)(=O)c2cc3c4c(c2)CC(=O)N4CCC3)c1 | 4.86 |
| CCCCCC(=O)Nc1ccc(N2CCN(CC)CC2)c(Cl)c1 | -71.5 |
| Cc1ccc(S(=O)(=O)N2CCOCC2)cc1C(=O)N1CC(C)OC(C)C1 (stereo not drawn) | 15.1 |
| COc1ccc(N2C(=O)CC(Cc3ccccc3)C2=O)cc1 (stereo not drawn) | 12.7 |
| O=C(C1CCCCC1)N1CCN=C1SCc1cccnc1 | -0.582 |
| CCN1CCCC1CNC(=O)CSCc1nc(-c2ccccc2C)oc1C (stereo not drawn) | -23.4 |
| O=C(CNS(=O)(=O)c1ccccc1)NCC(=O)OCc1ccccc1F | 13.7 |
| CC1(OC(=O)CCc2ccccc2)C(=O)C=C2C=C3CCCN3C=C2C1=O (stereo not drawn) | -1.36 |
| C=CCn1c(COc2ccccc2)nnc1SCC(=O)Nc1ccc2c(c1)OCCO2 | 1.65 |
| Cc1cc(C2C(=O)c3ccccc3C2=O)c(C)c(C)c1C | -14.1 |
| CCC(=O)C1=C(O)C(c2cccc(Oc3ccccc3)c2)CCC1=O (stereo not drawn) | -4.31 |
| COc1ccccc1NS(=O)(=O)c1ccc2oc(=O)ccc2c1 | 9.62 |
| C=CCNC(=O)c1c(-c2c(F)cccc2Cl)noc1C | -1.62 |
| CCOc1ccc(C(C)NC(=O)Cc2ccccc2F)cc1OCC (stereo not drawn) | 12.3 |
| CC(C)(C)NC(=O)C(c1ccncc1)N(C(=O)Cn1nnc(-c2ccc(F)cc2)n1)c1ccc(F)cc1 (stereo not drawn) | -20 |
| c1ccc(-c2nc(-c3ccncc3)n[nH]2)nc1 | -1.5 |
| COc1ccc(-c2nn(Cc3ccccc3)cc2C(=O)N2CCN(c3ncccn3)CC2)cc1OC | -38.4 |
| CCN(CC)S(=O)(=O)c1ccc(C)c(C(=O)Oc2cccc(-c3cnc4ccccc4n3)c2)c1 | 15.7 |
| Cc1cc(=O)oc(C)c1C(=O)NCC1COc2ccccc2O1 (stereo not drawn) | -4.16 |
| O=C(c1ccc(Cl)cc1)N1CCC(N2CCC(C(=O)N3CCOCC3)CC2)CC1 | -22.8 |
| Cc1nc(-c2nc(-c3c(C(=O)NNC(=O)Nc4cccc(Cl)c4)noc3C)cs2)cs1 | -3.74 |
| O=C(Nc1ccccc1)N1CCc2ccccc2C1 | 10.8 |
| O=C(c1ccccc1)c1c(O)nc(-c2ccccc2)n(-c2ccccc2)c1=O | 10.4 |

| SMILES | hERG current change (%, negative = inhibition) at 10uM [%] |
| --- | --- |
| CCCCc1nc2sc3c(SCC(=O)NCc4ccco4)ncnc3c2c2c1CCC2 | 23.4 |
| CCN(Cc1cnn(C)c1)C(=O)c1cc(COc2cc(C)c(Cl)c(C)c2)on1 | -43.1 |
| COc1cccc(CNC(=O)Cn2c(=O)n(CCC(=O)N3CCCCC3)c(=O)c3sccc32)c1 | -3.26 |
| Nc1cc(N2CCCC2)ccc1[N+](=O)[O-] | 7.33 |
| FC(F)(F)c1ccc(-c2nc(=S)[nH][nH]2)cc1 | 27.6 |
| CCOc1cc(NC(=S)NCC2CCCO2)c(OCC)cc1NC(=O)CC (stereo not drawn) | -14.1 |
| NC(CC(=O)O)C1CCCCC1 (stereo not drawn) | 17.5 |
| N#CC1(NC(=O)CN2CCc3ccccc3C2)CCCC1 | 17.9 |
| COc1ccc(S(=O)(=O)N(Cc2cccs2)C2CCCC2)cc1 | 5.76 |
| Cc1ccc(OCCC(=O)OCC(=O)N2CCN(S(=O)(=O)c3ccc(C)cc3C)CC2)cc1 | 11.2 |
| CC1(C)CC(NC(=S)NCc2ccc3c(c2)OCO3)CC(C)(C)N1 | 20.7 |
| COc1ccc(C(=O)c2ccc(Cl)c([N+](=O)[O-])c2)cc1 | -1.33 |
| CSC1=N/C(=C/c2cccnc2)C(=O)N1Cc1ccccc1 | -35.1 |
| Cc1ccc(-c2cc(C(=O)N3CCOCC3)no2)cc1 | -31 |
| O=S(=O)(c1ccc2c(c1)OCCO2)N1CCN(Cc2ccccc2)CC1 | -9.92 |
| CN(C)CCCCNCCCNC(=O)/C=N\O | 20.4 |
| COCCn1nnnc1C(c1cc(OC)ccc1OC)N1CCc2ccccc2C1.Cl (stereo not drawn) | 9.4 |
| Cc1ccn(CC(=O)NC2CCCN(Cc3ccc(CC(C)C)cc3)C2)n1 (stereo not drawn) | -55.2 |
| C=CCOC(=O)C1=C(C)NC(=O)NC1c1ccc(OCC)cc1 (stereo not drawn) | -4.06 |
| C=CCc1c(C)nn(CC(=O)O)c1-c1ccccc1 | 12.5 |
| O=C(NCC1CCCO1)c1ccccc1-c1nc(-c2ccc(F)cc2)no1 (stereo not drawn) | -31.1 |
| CCOC(=O)c1[nH]c2ccc(Cl)cc2c1-c1ccccc1 | 17 |
| CCCC(NC(=O)C(C)Sc1nnnn1C1CC1)c1ccccc1 (stereo not drawn) | 0.793 |

| SMILES | hERG current change (%, negative = inhibition) at 10uM [%] |
| --- | --- |
| CC1CN(C(=O)c2cccc(S(=O)(=O)Nc3ccc(Cl)cc3)c2)CC(C)O1 (stereo not drawn) | 14.5 |
| COc1ccc(C#Cc2ccc3c(=O)c4ccccc4n(C)c3c2)cc1 | 18 |
| CCOc1cc(N2CCOCC2)c(OCC)cc1NC(=O)c1ccc(NC(C)=O)cc1 | 6.94 |
| O=C(NC(=S)N1CCCC1)c1cccc([N+](=O)[O-])c1 | 19.9 |
| Cc1cc(O)c(NC(=O)c2cc([N+](=O)[O-])ccc2Cl)cc1C | -20.6 |
| COc1cccc(CC2(CO)CCCN(Cc3c(C)cc(C)cc3-n3cccn3)C2)c1 (stereo not drawn) | -84.4 |
| CSc1ccc(C(=O)C2CCCN(Cc3ccn[nH]3)C2)cc1 (stereo not drawn) | -26.6 |
| CCOc1ccc(C(=O)NC2CC3CCCC(C2)N3CC(C)C)cc1 (stereo not drawn) | -41.1 |
| OC1CCN(C(c2ccc3ncccc3c2)c2nnnn2C2CCCCC2)CC1 (stereo not drawn) | -31.8 |
| O=C(CSc1nc2ccccc2s1)Nc1nccs1 | 14 |
| NC(=O)c1sc2nc(-c3ccco3)ccc2c1N | 8.56 |
| Cc1ccccc1CC1SC(N=C(N)N)=NC1=O (stereo not drawn) | 4.41 |
| O=C(NCCCC(=O)N1CCCCC1)c1ccc(Cl)cc1 | -2.72 |
| O=C(CSc1nncc(=O)[nH]1)NC1CCCCC1 | 27 |
| Cc1cc2oc(=O)cc(CN(C)Cc3ccccc3F)c2cc1Cl | 4.97 |
| CN(CCCN1c2ccccc2CCc2ccccc21)CC(=O)c1ccc(Cl)cc1.Cl | -9.81 |
| CSc1nc(-c2ccccc2)c2cc(Cl)ccc2n1 | 13.2 |
| Cc1ccc(C)c(NC(=O)CCN2CC(C)CC(C)C2)c1 (stereo not drawn) | 3.58 |
| COc1ccccc1/C=C1/SC(=O)N(CCC(=O)Nc2ccc(S(=O)(=O)Nc3nccs3)cc2)C1=O | 5.05 |
| CN(C)S(=O)(=O)c1ccc(C(=O)NCc2nnc(SCC(=O)NCc3ccco3)o2)cc1 | 15.8 |
| Cc1noc(C)c1S(=O)(=O)N(CC(=O)N1CCCCCC1)c1ccc(C(C)C)cc1 | -17 |
